In all, about 310,000 compounds went through this assay and about 2,200 (0.71%) showed an effect of 50% or more. Effects have a minus sign here. This is one part of the list.

The target in this experiment is human ether-à-go-go-related gene (hERG) potassium channel (human, UniProt Q12809). Description: primary screen, population patch clamp on CHO cells stably expressing hERG.
Sequence of human ether-à-go-go-related gene (hERG) potassium channel (Q12809 whole entry, looked up): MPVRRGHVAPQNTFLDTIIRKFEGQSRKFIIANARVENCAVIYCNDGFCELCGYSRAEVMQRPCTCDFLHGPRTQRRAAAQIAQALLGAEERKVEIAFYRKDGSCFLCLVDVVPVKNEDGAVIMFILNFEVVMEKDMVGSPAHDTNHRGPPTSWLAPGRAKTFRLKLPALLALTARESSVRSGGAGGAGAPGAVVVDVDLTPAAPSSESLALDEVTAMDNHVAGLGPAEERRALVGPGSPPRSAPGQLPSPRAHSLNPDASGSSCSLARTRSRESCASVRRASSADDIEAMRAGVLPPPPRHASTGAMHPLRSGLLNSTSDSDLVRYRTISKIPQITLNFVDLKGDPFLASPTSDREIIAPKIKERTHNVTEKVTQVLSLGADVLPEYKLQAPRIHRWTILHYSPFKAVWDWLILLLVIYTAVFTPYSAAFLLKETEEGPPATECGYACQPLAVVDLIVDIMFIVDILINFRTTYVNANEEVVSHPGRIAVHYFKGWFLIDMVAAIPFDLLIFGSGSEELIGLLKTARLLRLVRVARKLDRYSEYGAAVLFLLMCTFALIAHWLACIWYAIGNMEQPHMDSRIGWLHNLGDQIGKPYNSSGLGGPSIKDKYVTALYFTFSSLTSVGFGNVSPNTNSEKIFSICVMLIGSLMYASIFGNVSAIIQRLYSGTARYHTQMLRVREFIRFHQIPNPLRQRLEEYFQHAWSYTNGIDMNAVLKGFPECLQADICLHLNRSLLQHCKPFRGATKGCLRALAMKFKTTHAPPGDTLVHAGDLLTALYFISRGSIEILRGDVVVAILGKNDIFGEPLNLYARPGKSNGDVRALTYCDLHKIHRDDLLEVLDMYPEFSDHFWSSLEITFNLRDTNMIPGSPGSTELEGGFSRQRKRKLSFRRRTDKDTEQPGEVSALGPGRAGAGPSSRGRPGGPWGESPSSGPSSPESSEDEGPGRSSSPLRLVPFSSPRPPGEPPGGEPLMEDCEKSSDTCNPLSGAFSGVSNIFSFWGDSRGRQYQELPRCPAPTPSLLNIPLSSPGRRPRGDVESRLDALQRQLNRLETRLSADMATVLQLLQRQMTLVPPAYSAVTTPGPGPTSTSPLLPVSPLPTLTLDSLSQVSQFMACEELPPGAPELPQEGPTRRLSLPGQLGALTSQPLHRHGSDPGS
For `COC(=O)c1sccc1-n1cccc1C(=O)NCc1ccccc1`, the “hERG current change (%, negative = inhibition) at 1uM” value was 4.36%.
On to `CNC(=S)Nc1ccc(OC(F)(F)F)cc1`, for which the “hERG current change (%, negative = inhibition) at 1uM” value was 11%.
Regarding `C=CCNC(=S)NC(=O)c1oc2ccccc2c1C`, the “hERG current change (%, negative = inhibition) at 1uM” value was found to be 13.7%.
For the compound `CC(C(=O)N(C)C1CCCCC1)N1CCC(C(N)=O)CC1` (centres unmarked), the “hERG current change (%, negative = inhibition) at 1uM” value came to 15.1%.
Regarding `Nc1ccc(-c2cc(N)n(-c3ccccc3)n2)cc1`, the “hERG current change (%, negative = inhibition) at 1uM” value was 3.03%.
In the case of `O=C(N/C(=C/c1cn(-c2ccccc2)nc1-c1ccccc1)C(=O)N1CCOCC1)c1ccccc1`, the “hERG current change (%, negative = inhibition) at 1uM” value stood at 3.27%.
`COc1ccccc1Nc1nc(N)nc(CSC(=S)N2CCN(c3ccccc3)CC2)n1`: the “hERG current change (%, negative = inhibition) at 1uM” value is listed as 6.01%.
In the case of `CCCn1c(C2CCCN2c2nc(-c3ccc(OC)cc3)cs2)nc2ccccc21` (centres unmarked), the “hERG current change (%, negative = inhibition) at 1uM” value was determined as 17.7%.
In the case of `CC(=O)Nc1ccc(S(=O)(=O)N(CCO)Cc2ccccc2)cc1`, the “hERG current change (%, negative = inhibition) at 1uM” value amounted to 11.8%.
Regarding `O=C(NC(=S)NCCc1ccc(Cl)cc1)c1ccco1`, the “hERG current change (%, negative = inhibition) at 1uM” value came out at 19%.
The result for `COC(=O)C1=C(c2c(C)noc2C)C[C@@H]2CC[C@H]1N2C(=O)N1CCC(C)CC1` reads 0.981%; that for `COc1cc(CNC(C)C23CC4CC(CC(C4)C2)C3)ccc1OCC(=O)NC(C)(C)C.Cl` (centres unmarked), 14.3%.
On to `Cc1c(C)c2ccc(OCC(=O)NC(Cc3ccc(Cl)cc3)C(=O)O)cc2oc1=O` (centres unmarked), for which the “hERG current change (%, negative = inhibition) at 1uM” value amounted to 9.54%.
For `Cc1cccc2[nH]c(CN(C)Cc3nc(CC4CC4)no3)nc12`, the “hERG current change (%, negative = inhibition) at 1uM” value stood at 4.77%.
The result for `C#CCOCCOCCOCCNc1nc(N2CCN(C(=O)[C@H]([C@@H](C)CC)n3cc(CCCC[NH3+])nn3)CC2)nc(N2CCN(C(=O)[C@H](C)n3cc(CCC(=O)O)nn3)CC2)n1.[Cl-]` reads 11%.
With `Nc1cc(C(=O)OCC(=O)N2CCCC2=O)ccc1Cl`, the “hERG current change (%, negative = inhibition) at 1uM” value was 13.8%.
Take `CC(=O)c1sccc1NC(=O)c1ccccc1C(=O)O`: the “hERG current change (%, negative = inhibition) at 1uM” value is on record as 15.8%.
Take `COc1cccc(CC(=O)OCC(=O)Nc2nnc(-c3ccccc3)o2)c1`: the “hERG current change (%, negative = inhibition) at 1uM” value is 10.2%.
As to `CCOc1ccc(NC(=O)CN(C)C(=O)c2ccc3nc(CC)c(CC)nc3c2)cc1OCC`, the “hERG current change (%, negative = inhibition) at 1uM” value was -8.18%.
On to `NC(=O)CC(NC(=O)Cc1cccc2ccccc12)c1ccc(N2CCCCCC2)c([N+](=O)[O-])c1` (centres unmarked), for which the “hERG current change (%, negative = inhibition) at 1uM” value is given as 8.91%.
With `NC1=NC(c2ccccc2Cl)n2c(nc3ccccc32)N1` (centres unmarked), the “hERG current change (%, negative = inhibition) at 1uM” value was -0.85%.
Consider `CCOC(=O)Cc1csc(NC(=O)/C=C\c2ccccc2Cl)n1`, for which the “hERG current change (%, negative = inhibition) at 1uM” value turned out to be 7.16%.
For `O=C(N/N=C/c1ccc(N2CCOCC2)cc1)c1cccs1`, the “hERG current change (%, negative = inhibition) at 1uM” value was determined as 13.2%.
As for `C/C(=N/NC(=O)CC(=O)N/N=C(\C)c1ccc([N+](=O)[O-])cc1)c1ccc([N+](=O)[O-])cc1`, the figure is 9.94%.
Turning to `CCn1nnc(NC(=O)c2ccc(-c3ccc(Cl)cc3)o2)n1`, the “hERG current change (%, negative = inhibition) at 1uM” value is on record as -15.1%.
In the case of `Cn1c(=O)n(-c2ccccc2)c(=O)c2c3c(sc21)COC(C)(C)C3`, the “hERG current change (%, negative = inhibition) at 1uM” value is reported as 8.65%.
With `O=C1c2c(O)cc(O)cc2O[C@@]12c1c(cc(O)c3c1O[C@H](c1ccc(O)cc1)[C@@H](O)C3)O[C@@H]2c1ccc(O)cc1`, the “hERG current change (%, negative = inhibition) at 1uM” value worked out at 20.7%.
Turning to `COc1ccc(Oc2nccc(-c3ccc(F)cc3)c2C#N)cc1`, the “hERG current change (%, negative = inhibition) at 1uM” value is 5.58%.
As to `CCN(CC(=O)NCc1cccs1)C(=O)/C=C/c1cc(Br)ccc1OC(F)F`, the “hERG current change (%, negative = inhibition) at 1uM” value is listed as -3.64%.
As for `CCOc1cc2[nH]c(=S)n(Cc3ccc(C(=O)NCC(OC)OC)cc3)c(=O)c2cc1OCC`, the figure is 6.97%; as for `O=S(=O)(NCc1ccc(F)cc1)c1ccccc1Br`, 3.72%; as for `COc1ccc(C(=O)Oc2ccc3c(C)cc(=O)oc3c2C(C)=O)cc1`, 0.652%.
On to `O=C(CSc1nnnn1-c1ccccc1)Nc1nsc(-c2ccccc2)n1`, for which the “hERG current change (%, negative = inhibition) at 1uM” value is listed as -1.62%.
Consider `NNC(=O)CCCNc1ncc(C(F)(F)F)cc1Cl`, for which the “hERG current change (%, negative = inhibition) at 1uM” value was 6.83%.
With `CC(C)c1nnc(NC(=O)C2CCN(C(=O)Nc3ccc(Cl)cc3)CC2)s1`, the “hERG current change (%, negative = inhibition) at 1uM” value amounted to 12.1%.
For `CCc1ccccc1NC(=O)CNCC(=O)Nc1ccccc1CC`, the “hERG current change (%, negative = inhibition) at 1uM” value stood at 11.1%.
As to `O=C(N/N=C/c1ccc(Br)cc1)c1cc[n+](Cc2ccccc2)cc1.[Cl-]`, the “hERG current change (%, negative = inhibition) at 1uM” value came to 7.9%.
As to `COc1ccc(OC)c(C(=O)c2coc3ccc(O)cc23)c1`, the “hERG current change (%, negative = inhibition) at 1uM” value was found to be 1.49%.
As to `COc1ccccc1-c1nnc(-c2ccc(C)cc2)o1`, the “hERG current change (%, negative = inhibition) at 1uM” value is -3.53%.
The result for `COc1ccc(C2CC(c3ccccc3)=NN2C(=O)CSc2ncn[nH]2)cc1` (centres unmarked) reads 0.96%.
As for `Oc1ccc(Br)cc1CNn1cnnc1`, the figure is 16.9%; as for `COC(=O)CSc1nnc2n(-c3ccc(OC)cc3)c(=O)c3c4c(sc3n12)CCCCC4`, 10.9%; as for `CCCOC(=O)Nc1sc2c(c1C(=O)OCC)CCC2`, -7.31%.
Take `CCC(C)N(C(=O)COC(=O)Cc1n[nH]c(=O)c2ccccc12)C1CCS(=O)(=O)C1` (centres unmarked): the “hERG current change (%, negative = inhibition) at 1uM” value is listed as 13.3%.
The result for `N#Cc1c(NC(=O)CCCN2C(=O)c3ccccc3C2=O)oc(-c2ccccc2)c1-c1ccccc1` reads -0.65%.
Consider `CCOc1ccc2nc(SCC(=O)N3CCCc4ccccc43)sc2c1`, for which the “hERG current change (%, negative = inhibition) at 1uM” value is given as -6.66%.
The result for `COc1ccc2nc(NC(=O)C3COc4ccccc4O3)sc2c1` (centres unmarked) reads 11.2%.
As for `CC1=CC(C)(C)NC(=S)N1c1ccc2ccccc2c1`, the “hERG current change (%, negative = inhibition) at 1uM” value amounted to 0.181%.
The result for `Cc1ccc(S(=O)(=O)N2CCN(c3cnn(-c4ccccc4)c(=O)c3Cl)CC2)cc1` reads 5.42%; that for `C#CCNc1c2c(nc3nnnn13)CCCC2`, 1.91%.
As for `CCc1ccccc1NC(=O)CCS(=O)(=O)c1ccc(Br)cc1`, the “hERG current change (%, negative = inhibition) at 1uM” value amounted to 12.9%.
The result for `O=C(CCCn1c(=O)c2cccn2c2cccnc21)NCCc1ccc(Cl)cc1` reads 3.34%; that for `Cc1ccc2nc(-c3ccccc3)cc(C(=O)N3CCc4ccccc4C3)c2c1`, 7.62%.
Consider `CC(C)(C)c1ccc(C(=O)NNc2ccc(F)cc2F)cc1`, for which the “hERG current change (%, negative = inhibition) at 1uM” value was determined as 11.9%.
On to `O=C(NCCNc1ccc([N+](=O)[O-])cc1)c1cc(F)c(F)cc1Cl`, for which the “hERG current change (%, negative = inhibition) at 1uM” value is -8.81%.
Regarding `CC1(C)C(C=C(Cl)Cl)C1C(=O)N1CCN(Cc2ccccc2)CC1` (centres unmarked), the “hERG current change (%, negative = inhibition) at 1uM” value is given as -12.2%.
The result for `O=C(O)c1ccccc1N(c1ccccc1)c1ccccc1` reads 11.3%.
On to `CCOC(=O)C1(C)NC(c2ccco2)C2C(=O)N(CC)C(=O)C21` (centres unmarked), for which the “hERG current change (%, negative = inhibition) at 1uM” value was found to be 12.5%.
As for `O=C(COC(=O)C1CCN(C(=O)c2ccc(Cl)cc2)CC1)Nc1ccccc1F`, the “hERG current change (%, negative = inhibition) at 1uM” value is given as -11.5%.
The result for `Cc1cc(S(=O)(=O)c2cc3ccc(O)c(C)c3oc2=O)ccc1F` reads 14.4%; that for `Cc1ccc(C)c(C(=O)CCC(=O)Nc2cccnc2)c1`, 12.1%.
As for `CCCNC(=O)C(Cc1ccccc1C)NC(=O)c1ccc(C(F)(F)F)cc1` (centres unmarked), the figure is 17%; as for `C/C(=C1\SC(N2CCOCC2)=NC1=O)c1ccc(C)cc1`, 5.49%.
As for `COCCN(Cc1nc(-c2ccc(C(F)(F)F)cc2)no1)C(C)C`, the “hERG current change (%, negative = inhibition) at 1uM” value is listed as 7.53%.
Regarding `CN(CCOC(=O)C1c2ccccc2Oc2ccccc21)C(C)(C)C.Cl`, the “hERG current change (%, negative = inhibition) at 1uM” value worked out at 5.23%.
Take `O=C(CN(C(=O)Cn1nnc(-c2ccc(F)cc2)n1)c1cccc(F)c1)NC1CCCC1`: the “hERG current change (%, negative = inhibition) at 1uM” value was found to be 19%.
In the case of `COC(=O)c1ccc2c(c1)N(C)C(=O)CS2`, the “hERG current change (%, negative = inhibition) at 1uM” value is on record as -4.86%.
With `CCc1ccccc1NC(=O)CNC(=O)c1cn(Cc2ccccc2)nc1-c1cccnc1`, the “hERG current change (%, negative = inhibition) at 1uM” value was determined as 6.27%.
The result for `O=C(Nc1nccs1)c1nc[nH]c1C(=O)NCc1ccccc1` reads 6.13%; that for `COc1cc(C(=O)Oc2ccc(C(=S)N3CCOCC3)cc2)cc(OC)c1OC`, 13.8%; that for `COCCNC(=O)c1ccc(NC(C)=O)cc1`, 13.5%.
In the case of `CN(C(=O)COC(=O)CNC(=O)c1ccc(C(C)(C)C)cc1)c1c(N)n(Cc2ccccc2)c(=O)[nH]c1=O`, the “hERG current change (%, negative = inhibition) at 1uM” value is given as 6.24%.
The result for `Cc1ccc(CN2CCc3[nH]c(=O)[nH]c(=O)c3C2)cc1` reads 15.8%; that for `Oc1c(C(c2ccccc2)N2CCCCC2)sc2ncnn12` (centres unmarked), 1.15%; that for `CC1(C)Oc2ccc3ccc(=O)oc3c2/C(=C/Nc2ccccn2)C1=O`, 17.4%.
For `O=c1oc2ccccc2n1CSC1=NCCS1`, the “hERG current change (%, negative = inhibition) at 1uM” value was -0.777%.
On to `CCOC(=O)COc1nc(-c2ccc(Cl)cc2)cc(-c2ccco2)c1C#N`, for which the “hERG current change (%, negative = inhibition) at 1uM” value is given as 5.01%.
As for `O=C(NC1CCS(=O)(=O)C1)c1ccccc1C(=O)c1ccccc1` (centres unmarked), the figure is 10.6%.
Consider `C=CCOc1c(/C=N\NC(N)=O)cccc1OC`, for which the “hERG current change (%, negative = inhibition) at 1uM” value amounted to 11.5%.
Regarding `COC(=O)c1ccc(NC(=O)COC(=O)c2nc3nccc(C)n3n2)cc1`, the “hERG current change (%, negative = inhibition) at 1uM” value turned out to be 8.07%.
For the compound `Cc1cccc(CN2CCN(C(=O)Cc3ccccc3)CC2)c1.O=C(O)C(=O)O`, the “hERG current change (%, negative = inhibition) at 1uM” value was 6.74%.
For `COc1ccc(S(=O)(=O)N2CCN(Cc3ccc4c(c3)OCO4)CC2)cc1`, the “hERG current change (%, negative = inhibition) at 1uM” value was 7.9%.
In the case of `Clc1cc(-c2ccccc2)nc(-c2ccccc2)n1`, the “hERG current change (%, negative = inhibition) at 1uM” value was determined as 0.176%.
As for `COc1ccc(/C=C(\NC(=O)c2ccccc2)C(=O)NCc2ccco2)cc1`, the figure is 13.7%; as for `Cc1ccccc1C(=O)N(Cc1cccs1)C1CCS(=O)(=O)C1` (centres unmarked), 22.2%; as for `CCOC(=O)C1CCN(C(c2cc(OC)c(OC)c(OC)c2)c2sc3nc(C)nn3c2O)CC1` (centres unmarked), 8.91%.

The values are drawn from publication PMC4336329 (PLoS ONE, 2015).
